# Measured values published in PubChem BioAssay AID1508642 (National Center for Advancing Translational Sciences (NCATS), 2021).
# About 200 (0.47%) of roughly 43,000 compounds were called active. Not shown: some 12% with an inconclusive outcome. Calls follow the shape of the dose curve; as a rule, active = well fitted cell-killing curve with a large enough effect; inconclusive = small, poorly fitted or top-dose-only effect, or effect the other way; inactive = flat fitted curve, though single readings scatter. The list shows a part of the results.
# Test: Cell viability qHTS assay in S16 Pmp22-F2sN cells; also: nearly all actives have a fitted effect of over 65% in size
# Conditions: S16 Pmp22-F2sN Schwann cells (luciferase reporters placed in the Pmp22 gene) viability, CellTiter-Glo, 24 h; series mostly up to 57.5 µM; activity change, negative = cytotoxicity: at the top concentration
# Outline: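 Rat S16 Schwann reporter line, 24 h treatment with library compounds delivered at 23 nL per well. Cell viability by CellTiter-Glo luminescence.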
# % is scaled to controls: 0 for no effect and ±100 for the full control effect.
row,Compound,"activity change, negative = cytotoxicity"
1,COc1cccc(CNC(=O)C(Cc2ccccc2)NS(=O)(=O)c2ccc3c(c2)oc(=O)n3C)c1 (configuration not stated),inactive: -6.04%
2,Cc1cccc(OC(=O)c2cc(-c3ccc4c(c3)OCCO4)on2)c1C,inactive: 2.57%
3,Cc1cc(Nc2cccc(Cl)c2)nc2ccc(NC(=O)c3cccc(N(C)C)c3)cc12,inactive: -17.1%
4,CCCS(=O)(=O)N1CCC(N2CCN(Cc3ccc(F)cc3)C(=O)C2=O)CC1,inactive: 17.2%
5,COc1ccc(-c2noc(-c3nnn(-c4ccc(C(C)C)cc4)c3C)n2)cc1OC,inactive: 8.23%
6,O=C(Nc1ccccc1)c1ccc2c(O)c(S(=O)(=O)c3ccc(Cl)cc3)c(=O)[nH]c2c1,inactive: 4.68%
7,CCOC(=O)c1ccc(NC(=O)CN2Cc3ccccc3C2=O)cc1,inactive: 1.25%
8,Cc1ncc(CO)c2c1Oc1nc(-c3ccc(F)cc3)nc(SCc3ccc(F)cc3Cl)c1C2,inactive: 7.83%
9,O=C(NCc1ccc(F)cc1)c1ccc2c(c1)nc1n2CCCCC1,inactive: 7.2%
10,CSc1ncc(Cl)c(C(=O)Nc2c(C(=O)c3ccc(C)c(F)c3)oc3ccccc23)n1,inactive: 9.73%
11,COc1cccc(NC(=O)CCc2nc(-c3cccs3)no2)c1,inactive: -2.73%
12,CCOC(=O)CCc1c(C)nc2c(c(C)nn2-c2ccc(C)cc2)c1C,inactive: 0.144%
13,O=C(Cn1nc(-c2ccc(Cl)cc2)ccc1=O)NCCc1ccccc1,inactive: 1.36%
14,O=C(C1CCC1)N1CCc2cc(S(=O)(=O)NCCc3ccccc3)ccc21,inactive: 6.4%
15,Cc1ccc(Cl)cc1N(C)C(=O)C1CCCN(c2ncnc3onc(-c4ccc(F)cc4)c23)C1 (configuration not stated),inactive: -11.8%
16,Cc1ccc(Cn2c(CCNC(=O)C(C)C)nc3ccccc32)cc1,inactive: -2.99%
17,COc1ccc(CNC(=O)CCNS(=O)(=O)c2ccc3c(c2)CCCC(=O)N3)cc1,inactive: -0.272%
18,COc1ccc(-c2nc(SCC(=O)NCc3ccccc3Cl)n[nH]2)cc1,inactive: -14.9%
19,Cc1cccc(CN2CCC(CNc3ncnc4onc(-c5ccc(Cl)cc5)c34)CC2)c1,inactive: -18.3%
20,Cc1ccc(CNC(=O)CN2C(=O)CC(c3ccc(C)c(C)c3)=Nc3ccccc32)cc1,inactive: -0.411%
21,COc1ccc(-c2nc(S(=O)(=O)c3ccc(C)cc3)c(N3CCCCC3)o2)cc1,inactive: -2.33%
22,O=C(NCc1cccc(Cl)c1)NCc1noc2ccccc12,inactive: -1.23%
23,CCCCN(CC)C(=O)CCCn1c(=O)c2cccn2c2ccccc21,inactive: -6.41%
24,COc1cccc(N2CCN(c3ncnc4c3c(-c3ccccc3)cn4-c3ccc(F)cc3)CC2)c1,inactive: 3.05%
25,COc1ccc(NC(=O)C2CCCN(S(=O)(=O)c3cccc4nonc34)C2)cc1Cl (configuration not stated),inactive: -4%
26,Clc1cccc(-n2cc(-c3ccccc3)c3c(NC4CCCC4)ncnc32)c1,inactive: -1.35%
27,COc1ccccc1NC(=O)CSc1nc2c(oc3ccccc32)c(=O)n1Cc1ccco1,inactive: -10.1%
